{
  "source": "patent US20250340519A1",
  "about": "“RADIOLABELLED COMPOUND” (OXFORD UNIVERSITY INNOVATION LIMITED, priority 2018, published 2025)",
  "key": {"[1]": {"system": "Capan-1 xenograft", "assay": "Ex vivo biodistribution in Capan-1 xenograft bearing mice", "settings": "Capan-1 xenograft mice, 1 h p.i., individual animals", "protocol": "All animal procedures were performed in accordance with the UK Animals (Scientific Procedures) Act 1986 and with local ethical committee approval. Animals were housed in IVC cages in sex-matched groups up to 5 per cage, in an artificial day-night cycle facility, with ad libitum access to food and water. Tumour xenografts or allografts were generated by subcutaneous injection of PANC-1 or Capan-1 cell suspensions in the hind flank of balb/c nu/nu animals. CaNT xenografts were generated by harvesting CaNT tumours from donor animals, and injecting a tumour homogenate subcutaneously in the flank of wild type CBA/Carl mice. Tumours were irradiated (10 Gy, 2 Gy/min) using a 300 kV X-ray device.\nDynamic PET/CT images were acquired following an intravenous bolus administration of [^18F]-olaparib. Biodistribution studies, where selected tissues were harvested, were performed 1 h post injection. Some animals were also administered an excess of cold, unlabelled olaparib for evaluating the specificity of tumour uptake. EF5, a hypoxia-selective marker, was injected 2 h before culling of the animal. Digital autoradiography was performed on tumour sections. Image analysis was performed using PMOD.\nCells were harvested using trypsin, washed twice using PBS, and reconstituted in DMEM. Panc-1 or Capan-1 xenograft tumours were established in the right hind flank of female NOD/SCID mice (Charles River, UK) by subcutaneous injection of 1×10^6 cells in PBS:matrigel (150 μL). Tumour volumes (V) were calculated after calliper measurement using the following equation: V=(a^2×b)/2, where a is the width of the tumour and b the length (small and large diameters, respectively). The individual relative tumour volume (RTV) was defined as Vt/Vo, where Vt is the volume at a given time and Vo at the start of treatment. Animals were entered in in vivo studies when their tumour was at least 200 mm^3.\nTwo hours prior to PET/CT imaging, animals were exposed to X-irradiation of the tumour (10 Gy or sham) (see schedule in FIG. 13). Radiation was delivered using a Gulmay 320 kV X-irradiator; 2.0 Gy/min. Anaesthesia was maintained at 2.5% isoflurane throughout the duration of the irradiation, and animals were allowed to recover. To study the relationship of PARP1 expression, ^18F-olaparib uptake and hypoxia, animals were administered 0.6 μg in 200 μL (0.9% saline) intraperitoneally, one hour prior to PET/CT imaging. Naïve CBA/Carl mice, not bearing tumours, were not irradiated, nor was EF5 administered.\nDynamic PET/CT images were acquired using a VECTor ^4CT integrated PET/CT system. Mice were anaesthetised by 4% isoflurane gas (0.5 L/min O2) and placed on a custom-built imaging cradle in a prone position. Animals mice were intravenously injected with [^18F]-olaparib or (3-5 MBq, 8-11 GBq/μmol, through a tail vein catheter, and dynamic imaging was performed over 45-60 min after radiolabelled compound administration. PET acquisition (150 s per frame, using list mode acquisition) using an ultra-high resolution rat/mouse 1.8 mm collimator, followed by a cone-beam CT scan (55 kV, 0.19 mA) for anatomical reference and attenuation correction. Anaesthesia was maintained at 2.5% isoflurane throughout the duration of the image acquisition. PET images were reconstructed using U-SPECT-Rec3.22 software (MILabs, Utrecht, The Netherlands), applying a pixel-based algorithm with 8 subsets, 6 iterations and 0.8 mm voxel size for ^18F (energy window settings 477.9-584.1 keV).\nAfter PET/CT image acquisition, animals were euthanized by cervical dislocation and selected organs, tissues and blood were removed. The amount of radioactivity in each organ was measured using a 2480 WIZARD^2 gamma counter (PerkinElmer). Counts per minute were converted into MBq using a calibration curve generated from known standards. Values were decay-corrected to the time of injection, and the percentage of the injected dose per gram (% ID/g) of each tissue was calculated."}, "[2]": {"system": "Panc-1 xenograft", "assay": "Ex vivo biodistribution in Panc-1 xenograft bearing mice", "settings": "Panc-1 xenograft mice, 1 h p.i., individual animals"}},
  "note": "Values joined by “and” are separate entries in the source; they are usually repeats but may differ in a detail not shown here. Equal entries are not always repeated. Further values from the same series stand in other lists.",
  "data": [
    {"smiles": "O=C(c1cc(Cc2n[nH]c(=O)c3ccccc23)ccc1[18F])N1CCN(C(=O)C2CC2)CC1", "note": "[[^18F]olaparib]", "values": [
      {"measurement": "Ex vivo biodistribution Blood", "setting": "[1]; + IR (10 Gy)", "result": "0.86 % ID/g and 0.43 % ID/g and 1.16 % ID/g"},
      {"measurement": "Ex vivo biodistribution Brain", "setting": "[1]; + IR (10 Gy)", "result": "0.06 % ID/g and 0.03 % ID/g (2×)"},
      {"measurement": "Ex vivo biodistribution Caecum", "setting": "[1]; + IR (10 Gy)", "result": "7.58 % ID/g and 4.46 % ID/g and 5.92 % ID/g"},
      {"measurement": "Ex vivo biodistribution Fat", "setting": "[1]; + IR (10 Gy)", "result": "0.24 % ID/g and 0.13 % ID/g and 0.19 % ID/g"},
      {"measurement": "Ex vivo biodistribution Gallbladder", "setting": "[1]; + IR (10 Gy)", "result": "68.68 % ID/g and 31.81 % ID/g and 36.90 % ID/g"},
      {"measurement": "Ex vivo biodistribution Heart", "setting": "[1]; + IR (10 Gy)", "result": "0.92 % ID/g and 0.48 % ID/g and 0.80 % ID/g"},
      {"measurement": "Ex vivo biodistribution Lung", "setting": "[1]; + IR (10 Gy)", "result": "0.83 % ID/g and 0.60 % ID/g and 0.85 % ID/g"},
      {"measurement": "Ex vivo biodistribution Tumour", "setting": "[1]; + IR (10 Gy)", "result": "1.85 % ID/g and 1.70 % ID/g and 2.48 % ID/g"},
      {"measurement": "Ex vivo biodistribution Blood", "setting": "[1]; + block (excess cold olaparib)", "result": "0.56 % ID/g and 0.25 % ID/g and 0.27 % ID/g"},
      {"measurement": "Ex vivo biodistribution Brain", "setting": "[1]; + block (excess cold olaparib)", "result": "0.04 % ID/g and 0.03 % ID/g (2×)"},
      {"measurement": "Ex vivo biodistribution Caecum", "setting": "[1]; + block (excess cold olaparib)", "result": "5.07 % ID/g and 9.13 % ID/g and 4.00 % ID/g"},
      {"measurement": "Ex vivo biodistribution Fat", "setting": "[1]; + block (excess cold olaparib)", "result": "0.36 % ID/g and 0.22 % ID/g and 0.77 % ID/g"},
      {"measurement": "Ex vivo biodistribution Gallbladder", "setting": "[1]; + block (excess cold olaparib)", "result": "88.82 % ID/g and 105.86 % ID/g and 35.11 % ID/g"},
      {"measurement": "Ex vivo biodistribution Heart", "setting": "[1]; + block (excess cold olaparib)", "result": "1.83 % ID/g and 0.53 % ID/g and 1.62 % ID/g"},
      {"measurement": "Ex vivo biodistribution Lung", "setting": "[1]; + block (excess cold olaparib)", "result": "1.86 % ID/g and 0.90 % ID/g and 2.04 % ID/g"},
      {"measurement": "Ex vivo biodistribution Skin", "setting": "[1]; + block (excess cold olaparib)", "result": "0.14 % ID/g and 0.46 % ID/g"},
      {"measurement": "Ex vivo biodistribution Tumour", "setting": "[1]; + block (excess cold olaparib)", "result": "0.69 % ID/g and 1.27 % ID/g and 1.04 % ID/g"},
      {"measurement": "Ex vivo biodistribution Blood", "setting": "[1]; tracer alone", "result": "0.30 % ID/g and 0.23 % ID/g and 0.31 % ID/g and 0.72 % ID/g"},
      {"measurement": "Ex vivo biodistribution Brain", "setting": "[1]; tracer alone", "result": "0.82 % ID/g and 0.03 % ID/g (2×) and 0.10 % ID/g"},
      {"measurement": "Ex vivo biodistribution Caecum", "setting": "[1]; tracer alone", "result": "5.11 % ID/g and 4.35 % ID/g and 3.31 % ID/g and 24.11 % ID/g"},
      {"measurement": "Ex vivo biodistribution Fat", "setting": "[1]; tracer alone", "result": "0.46 % ID/g and 0.19 % ID/g and 0.27 % ID/g and 0.69 % ID/g"},
      {"measurement": "Ex vivo biodistribution Gallbladder", "setting": "[1]; tracer alone", "result": "81.02 % ID/g and 24.53 % ID/g and 34.02 % ID/g and 446.94 % ID/g"},
      {"measurement": "Ex vivo biodistribution Heart", "setting": "[1]; tracer alone", "result": "1.75 % ID/g and 0.87 % ID/g and 1.81 % ID/g and 2.24 % ID/g"},
      {"measurement": "Ex vivo biodistribution Lung", "setting": "[1]; tracer alone", "result": "2.60 % ID/g and 1.49 % ID/g and 2.66 % ID/g and 3.97 % ID/g"},
      {"measurement": "Ex vivo biodistribution Tumour", "setting": "[1]; tracer alone", "result": "2.48 % ID/g and 3.21 % ID/g and 2.94 % ID/g and 1.73 % ID/g"},
      {"measurement": "Ex vivo biodistribution Blood", "setting": "[2]; + IR (10 Gy)", "result": "0.63 % ID/g and 0.83 % ID/g and 1.17 % ID/g"},
      {"measurement": "Ex vivo biodistribution Bone", "setting": "[2]; + IR (10 Gy)", "result": "9.12 % ID/g and 4.13 % ID/g and 3.81 % ID/g"},
      {"measurement": "Ex vivo biodistribution Fat", "setting": "[2]; + IR (10 Gy)", "result": "0.66 % ID/g and 1.41 % ID/g and 0.82 % ID/g"},
      {"measurement": "Ex vivo biodistribution Heart", "setting": "[2]; + IR (10 Gy)", "result": "3.14 % ID/g and 2.49 % ID/g and 2.88 % ID/g"},
      {"measurement": "Ex vivo biodistribution Lung", "setting": "[2]; + IR (10 Gy)", "result": "3.94 % ID/g and 4.47 % ID/g (2×)"},
      {"measurement": "Ex vivo biodistribution Skin", "setting": "[2]; + IR (10 Gy)", "result": "2.10 % ID/g and 2.38 % ID/g and 2.66 % ID/g"},
      {"measurement": "Ex vivo biodistribution Tumour", "setting": "[2]; + IR (10 Gy)", "result": "6.43 % ID/g and 3.03 % ID/g and 6.59 % ID/g"},
      {"measurement": "Ex vivo biodistribution Blood", "setting": "[2]; + block (excess cold olaparib)", "result": "2.12 % ID/g and 2.29 % ID/g and 2.51 % ID/g and 1.06 % ID/g"},
      {"measurement": "Ex vivo biodistribution Fat", "setting": "[2]; + block (excess cold olaparib)", "result": "0.53 % ID/g and 0.62 % ID/g and 0.35 % ID/g and 0.19 % ID/g"},
      {"measurement": "Ex vivo biodistribution Heart", "setting": "[2]; + block (excess cold olaparib)", "result": "1.98 % ID/g and 1.59 % ID/g and 1.51 % ID/g and 0.78 % ID/g"},
      {"measurement": "Ex vivo biodistribution Skin", "setting": "[2]; + block (excess cold olaparib)", "result": "1.65 % ID/g and 1.09 % ID/g and 1.10 % ID/g and 0.66 % ID/g"},
      {"measurement": "Ex vivo biodistribution Tumour", "setting": "[2]; + block (excess cold olaparib)", "result": "1.68 % ID/g and 0.92 % ID/g and 1.09 % ID/g (2×)"},
      {"measurement": "Ex vivo biodistribution Bone", "setting": "[2]; tracer alone", "result": "2.71 % ID/g and 1.88 % ID/g and 1.26 % ID/g and 1.50 % ID/g"},
      {"measurement": "Ex vivo biodistribution Fat", "setting": "[2]; tracer alone", "result": "0.97 % ID/g and 0.82 % ID/g and 0.68 % ID/g and 0.45 % ID/g and 0.44 % ID/g and 0.37 % ID/g"},
      {"measurement": "Ex vivo biodistribution Tumour", "setting": "[2]; tracer alone", "result": "1.94 % ID/g and 4.07 % ID/g and 4.20 % ID/g and 3.27 % ID/g and 2.43 % ID/g and 3.07 % ID/g"}
    ]}
  ]
}
